Laboratory results published in paper PMC5062570 (Nature Communications, 2016).
Values joined by “and” are separate entries in the source; they are usually repeats but may differ in a detail not shown here. Equal entries are not always repeated. Where two headings read alike, the source gives them in different places.

Tests used:
[1] = molecular target: PF-7802-labelled proteins in ARPE-19 cells (Homo sapiens, UniProt Q14974); conditions: protein KPNB1 Importin subunit beta-1 (Q14974); one column per replicate
[2] = molecular target: PF-7802-labelled proteins in ARPE-19 cells (Homo sapiens, UniProt P35232); conditions: protein PHB Prohibitin (P35232); replicates in separate columns
[3] = molecular target: PF-7802-labelled proteins in ARPE-19 cells (Homo sapiens, UniProt P60174); conditions: TPI1 Triosephosphate isomerase (P60174)
[4] = molecular target: PF-7802-labelled proteins in ARPE-19 cells (Homo sapiens, UniProt Q07955); conditions: SRSF1 Serine/arginine-rich splicing factor 1 (Q07955)
[5] = molecular target: PF-7802-labelled proteins in ARPE-19 cells (Homo sapiens, UniProt Q9P035); conditions: protein PTPLAD1 3-hydroxyacyl-CoA dehydratase 3, Q9P035
[6] = molecular target: PF-7802-labelled proteins in ARPE-19 cells (Homo sapiens, UniProt P42766); conditions: protein RPL35 60S ribosomal protein L35, P42766
[7] = molecular target: PF-7802-labelled proteins in ARPE-19 cells (Homo sapiens, UniProt P08670); conditions: for Median SILAC Ratio (Heavy/Light): protein VIM Vimentin (P08670)
[8] = molecular target: PF-7802-labelled proteins in ARPE-19 cells (Homo sapiens, UniProt Q9ULV4); conditions: for Median SILAC Ratio (Heavy/Light): protein CORO1C Coronin-1C (Q9ULV4)
[9] = molecular target: PF-7802-labelled proteins in ARPE-19 cells (Homo sapiens, UniProt Q5TEC6); conditions: protein HIST2H3PS2 Histone H3 (Q5TEC6); one column per replicate
[10] = molecular target: PF-7802-labelled proteins in ARPE-19 cells (Homo sapiens, UniProt P36578); conditions: for Median SILAC Ratio (Heavy/Light): protein RPL4 60S ribosomal protein L4, P36578
[11] = molecular target: PF-7802-labelled proteins in ARPE-19 cells (Homo sapiens, UniProt P63162); conditions: SNRPN Small nuclear ribonucleoprotein-associated protein N (P63162)
[12] = molecular target: PF-7802-labelled proteins in ARPE-19 cells (Homo sapiens, UniProt P37059); conditions: protein HSD17B2 Estradiol 17-beta-dehydrogenase 2 (P37059); one column per replicate
[13] = molecular target: PF-7802-labelled proteins in ARPE-19 cells (Homo sapiens, UniProt Q9H9B4); conditions: SFXN1 Sideroflexin-1 (Q9H9B4)
[14] = molecular target: PF-7802-labelled proteins in ARPE-19 cells (Homo sapiens, UniProt P17987); conditions: TCP1 T-complex protein 1 subunit alpha (P17987)
[15] = molecular target: PF-7802-labelled proteins in ARPE-19 cells (Homo sapiens, UniProt P62753); conditions: protein RPS6 40S ribosomal protein S6, P62753
[16] = molecular target: PF-7802-labelled proteins in ARPE-19 cells (Homo sapiens, UniProt P84103); conditions: SRSF3 Serine/arginine-rich splicing factor 3 (P84103)
[17] = molecular target: T1, PF-7802-labelled proteins in ARPE-19 cells (Homo sapiens, UniProt P27824); conditions: for Median SILAC Ratio (Heavy/Light): protein CANX Calnexin (P27824)
T1 sequence (P27824 21-592): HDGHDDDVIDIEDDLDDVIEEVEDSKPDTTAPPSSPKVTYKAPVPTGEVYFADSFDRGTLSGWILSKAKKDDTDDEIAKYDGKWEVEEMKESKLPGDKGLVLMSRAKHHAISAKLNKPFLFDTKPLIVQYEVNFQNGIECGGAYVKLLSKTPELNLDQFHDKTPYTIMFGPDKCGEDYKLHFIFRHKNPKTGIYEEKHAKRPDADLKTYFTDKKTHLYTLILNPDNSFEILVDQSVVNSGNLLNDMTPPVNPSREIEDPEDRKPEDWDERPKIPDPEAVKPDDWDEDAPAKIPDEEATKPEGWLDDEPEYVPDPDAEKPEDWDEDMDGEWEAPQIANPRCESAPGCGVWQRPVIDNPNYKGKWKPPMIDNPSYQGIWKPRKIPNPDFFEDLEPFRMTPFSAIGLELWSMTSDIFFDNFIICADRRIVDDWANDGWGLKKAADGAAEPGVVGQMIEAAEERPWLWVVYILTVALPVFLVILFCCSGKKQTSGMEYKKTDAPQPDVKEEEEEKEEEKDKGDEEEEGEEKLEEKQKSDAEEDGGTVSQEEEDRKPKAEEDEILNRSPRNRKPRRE

[18] = molecular target: PF-7802-labelled proteins in ARPE-19 cells (Homo sapiens, UniProt P61224); conditions: protein RAP1B Ras-related protein Rap-1b, P61224
[19] = molecular target: PF-7802-labelled proteins in ARPE-19 cells (Homo sapiens, UniProt Q2TB90); conditions: protein HKDC1 Putative hexokinase HKDC1 (Q2TB90); one column per replicate
[20] = molecular target: PF-7802-labelled proteins in ARPE-19 cells (Homo sapiens, UniProt Q6PIU2); conditions: protein NCEH1 Neutral cholesterol ester hydrolase 1 (Q6PIU2); replicates in separate columns
[21] = molecular target: PF-7802-labelled proteins in ARPE-19 cells (Homo sapiens, UniProt P62750)

Chain of UniProt Q6PIU2 (Q6PIU2 whole entry): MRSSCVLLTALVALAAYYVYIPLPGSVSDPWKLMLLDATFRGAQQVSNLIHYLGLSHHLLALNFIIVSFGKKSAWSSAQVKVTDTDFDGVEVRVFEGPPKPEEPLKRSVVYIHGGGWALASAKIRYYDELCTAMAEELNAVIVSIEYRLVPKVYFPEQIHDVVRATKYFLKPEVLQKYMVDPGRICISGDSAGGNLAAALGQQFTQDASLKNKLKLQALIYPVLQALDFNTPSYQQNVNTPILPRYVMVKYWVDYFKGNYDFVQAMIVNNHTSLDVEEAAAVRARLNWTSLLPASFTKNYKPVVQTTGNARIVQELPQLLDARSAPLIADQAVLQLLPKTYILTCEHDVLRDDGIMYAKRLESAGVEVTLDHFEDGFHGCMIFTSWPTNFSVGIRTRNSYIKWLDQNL
Chain of UniProt P60174 (P60174 whole entry): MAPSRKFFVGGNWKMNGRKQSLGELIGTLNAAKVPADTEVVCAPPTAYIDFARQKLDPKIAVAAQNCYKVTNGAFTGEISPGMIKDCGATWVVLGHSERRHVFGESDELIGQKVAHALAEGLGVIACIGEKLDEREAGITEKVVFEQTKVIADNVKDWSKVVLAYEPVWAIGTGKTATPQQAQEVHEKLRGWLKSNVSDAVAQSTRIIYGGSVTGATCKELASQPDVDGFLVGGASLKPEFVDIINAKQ
Chain of UniProt P08670 (P08670 whole entry): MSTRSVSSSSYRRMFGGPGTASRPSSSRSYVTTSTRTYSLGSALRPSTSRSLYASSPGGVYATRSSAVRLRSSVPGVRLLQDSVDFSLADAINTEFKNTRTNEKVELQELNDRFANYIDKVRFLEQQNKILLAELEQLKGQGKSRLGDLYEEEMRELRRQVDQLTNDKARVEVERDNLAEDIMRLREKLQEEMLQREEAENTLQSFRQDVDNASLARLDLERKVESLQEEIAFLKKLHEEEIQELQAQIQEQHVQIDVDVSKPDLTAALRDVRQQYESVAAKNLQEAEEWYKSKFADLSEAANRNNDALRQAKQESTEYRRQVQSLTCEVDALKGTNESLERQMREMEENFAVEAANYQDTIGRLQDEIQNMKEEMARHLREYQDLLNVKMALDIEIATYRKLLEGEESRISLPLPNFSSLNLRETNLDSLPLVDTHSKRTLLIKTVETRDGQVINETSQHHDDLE
Chain of UniProt Q14974 (Q14974 whole entry): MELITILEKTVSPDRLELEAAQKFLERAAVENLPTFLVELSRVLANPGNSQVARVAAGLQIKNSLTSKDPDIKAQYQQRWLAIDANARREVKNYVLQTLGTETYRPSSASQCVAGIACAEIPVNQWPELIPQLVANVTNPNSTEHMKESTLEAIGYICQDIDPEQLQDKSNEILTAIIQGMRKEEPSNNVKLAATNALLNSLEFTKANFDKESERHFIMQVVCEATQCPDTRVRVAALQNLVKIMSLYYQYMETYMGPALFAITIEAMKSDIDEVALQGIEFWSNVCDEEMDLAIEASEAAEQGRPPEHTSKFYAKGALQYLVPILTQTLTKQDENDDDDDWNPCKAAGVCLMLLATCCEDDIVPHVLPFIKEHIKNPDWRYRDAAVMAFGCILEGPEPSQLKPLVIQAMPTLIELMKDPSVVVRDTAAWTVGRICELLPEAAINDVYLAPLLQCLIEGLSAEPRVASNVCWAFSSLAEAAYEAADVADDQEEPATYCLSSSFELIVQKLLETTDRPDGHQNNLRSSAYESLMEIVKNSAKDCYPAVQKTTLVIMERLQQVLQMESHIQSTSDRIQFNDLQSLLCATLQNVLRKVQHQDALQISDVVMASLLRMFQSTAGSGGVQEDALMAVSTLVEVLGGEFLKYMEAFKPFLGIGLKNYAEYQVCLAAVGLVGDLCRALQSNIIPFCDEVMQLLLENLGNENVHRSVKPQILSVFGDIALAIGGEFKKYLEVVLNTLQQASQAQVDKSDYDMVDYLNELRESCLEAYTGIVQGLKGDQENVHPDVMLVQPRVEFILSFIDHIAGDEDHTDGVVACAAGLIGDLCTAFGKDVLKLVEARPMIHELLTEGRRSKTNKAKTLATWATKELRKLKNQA
Chain of UniProt Q9ULV4 (Q9ULV4 whole entry): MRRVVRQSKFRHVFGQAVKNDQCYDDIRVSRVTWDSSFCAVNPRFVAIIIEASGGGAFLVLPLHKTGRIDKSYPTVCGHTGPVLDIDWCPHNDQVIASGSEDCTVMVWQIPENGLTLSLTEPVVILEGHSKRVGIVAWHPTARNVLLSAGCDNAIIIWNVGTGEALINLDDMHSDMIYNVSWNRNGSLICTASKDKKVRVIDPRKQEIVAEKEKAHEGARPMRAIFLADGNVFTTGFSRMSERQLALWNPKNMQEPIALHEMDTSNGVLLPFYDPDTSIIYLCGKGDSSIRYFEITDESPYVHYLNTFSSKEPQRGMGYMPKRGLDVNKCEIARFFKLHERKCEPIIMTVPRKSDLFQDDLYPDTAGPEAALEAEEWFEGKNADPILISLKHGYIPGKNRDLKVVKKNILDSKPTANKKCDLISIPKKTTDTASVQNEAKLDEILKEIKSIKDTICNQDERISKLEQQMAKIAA
Chain of UniProt P35232 (P35232 whole entry): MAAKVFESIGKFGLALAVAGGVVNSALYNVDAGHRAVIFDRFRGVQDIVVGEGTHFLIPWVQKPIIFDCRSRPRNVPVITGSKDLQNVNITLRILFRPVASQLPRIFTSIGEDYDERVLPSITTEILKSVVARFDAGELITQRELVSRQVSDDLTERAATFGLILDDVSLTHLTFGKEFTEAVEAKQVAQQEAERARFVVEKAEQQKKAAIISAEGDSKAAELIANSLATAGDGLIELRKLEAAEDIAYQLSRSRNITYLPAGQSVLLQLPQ
Chain of UniProt P84103 (P84103 whole entry): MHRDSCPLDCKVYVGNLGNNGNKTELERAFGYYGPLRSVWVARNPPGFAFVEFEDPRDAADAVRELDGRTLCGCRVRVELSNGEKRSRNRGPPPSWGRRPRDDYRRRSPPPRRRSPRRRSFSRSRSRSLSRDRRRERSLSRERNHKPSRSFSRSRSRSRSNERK
Chain of UniProt Q9P035 (Q9P035 whole entry): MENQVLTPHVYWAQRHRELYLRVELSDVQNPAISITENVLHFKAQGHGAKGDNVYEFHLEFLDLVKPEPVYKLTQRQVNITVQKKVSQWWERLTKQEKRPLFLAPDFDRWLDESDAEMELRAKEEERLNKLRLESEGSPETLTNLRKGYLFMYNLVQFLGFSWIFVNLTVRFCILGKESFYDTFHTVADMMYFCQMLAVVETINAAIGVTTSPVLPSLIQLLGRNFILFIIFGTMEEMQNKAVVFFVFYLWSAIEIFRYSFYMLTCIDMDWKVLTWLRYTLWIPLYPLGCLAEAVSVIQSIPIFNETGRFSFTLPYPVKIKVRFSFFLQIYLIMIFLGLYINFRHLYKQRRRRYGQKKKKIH
Chain of UniProt P37059 (P37059 whole entry): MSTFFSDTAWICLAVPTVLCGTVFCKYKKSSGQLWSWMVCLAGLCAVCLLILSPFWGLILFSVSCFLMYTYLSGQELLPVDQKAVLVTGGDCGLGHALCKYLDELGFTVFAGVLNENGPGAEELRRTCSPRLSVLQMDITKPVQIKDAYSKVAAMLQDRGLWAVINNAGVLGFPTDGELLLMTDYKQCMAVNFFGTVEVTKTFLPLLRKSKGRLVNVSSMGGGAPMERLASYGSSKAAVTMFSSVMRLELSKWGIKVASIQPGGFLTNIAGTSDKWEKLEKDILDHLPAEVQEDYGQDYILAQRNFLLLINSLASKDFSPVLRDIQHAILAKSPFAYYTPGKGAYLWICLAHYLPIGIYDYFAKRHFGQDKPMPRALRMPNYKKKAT
Chain of UniProt P17987 (P17987 whole entry): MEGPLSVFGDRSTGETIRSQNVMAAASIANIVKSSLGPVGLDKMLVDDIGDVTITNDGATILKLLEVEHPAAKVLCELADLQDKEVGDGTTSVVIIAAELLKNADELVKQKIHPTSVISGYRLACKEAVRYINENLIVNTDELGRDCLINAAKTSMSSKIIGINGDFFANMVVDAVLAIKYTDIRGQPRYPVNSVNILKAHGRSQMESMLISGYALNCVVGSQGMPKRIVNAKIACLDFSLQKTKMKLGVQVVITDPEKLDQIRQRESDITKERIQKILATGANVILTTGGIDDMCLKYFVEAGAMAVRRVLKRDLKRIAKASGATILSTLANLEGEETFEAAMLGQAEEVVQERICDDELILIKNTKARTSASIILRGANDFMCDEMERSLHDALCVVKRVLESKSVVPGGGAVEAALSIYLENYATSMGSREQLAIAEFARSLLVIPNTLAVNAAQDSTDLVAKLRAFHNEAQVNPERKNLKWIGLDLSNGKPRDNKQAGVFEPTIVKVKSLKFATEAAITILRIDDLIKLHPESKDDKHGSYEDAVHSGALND
Chain of UniProt P61224 (P61224 whole entry): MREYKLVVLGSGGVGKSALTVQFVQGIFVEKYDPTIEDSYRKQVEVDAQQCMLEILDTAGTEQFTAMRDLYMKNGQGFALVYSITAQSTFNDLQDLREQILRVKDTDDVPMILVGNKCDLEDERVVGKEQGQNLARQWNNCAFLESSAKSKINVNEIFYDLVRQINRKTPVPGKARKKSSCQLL
Chain of UniProt Q9H9B4 (Q9H9B4 whole entry): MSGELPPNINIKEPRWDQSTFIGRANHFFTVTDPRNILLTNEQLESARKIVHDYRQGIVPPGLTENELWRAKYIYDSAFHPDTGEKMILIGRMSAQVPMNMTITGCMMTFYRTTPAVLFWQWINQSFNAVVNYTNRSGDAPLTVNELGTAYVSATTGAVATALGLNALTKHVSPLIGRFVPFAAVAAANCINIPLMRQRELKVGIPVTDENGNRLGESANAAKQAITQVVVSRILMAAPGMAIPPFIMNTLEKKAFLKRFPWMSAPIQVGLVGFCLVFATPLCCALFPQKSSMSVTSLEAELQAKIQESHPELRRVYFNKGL

| SMILES | Median SILAC Ratio (Heavy/Light) [1] | Median SILAC Ratio (Heavy/Light) [2] | Median SILAC Ratio (Heavy/Light) [3] | Median SILAC Ratio (Heavy/Light) [4] | Median SILAC Ratio (Heavy/Light) [5] | Median SILAC Ratio (Heavy/Light) [6] | Median SILAC Ratio (Heavy/Light) ([7]; replicate R1) | Median SILAC Ratio (Heavy/Light) ([7]; replicate R2) | Median SILAC Ratio (Heavy/Light) [8] | Median SILAC Ratio (Heavy/Light) [9] | Median SILAC Ratio (Heavy/Light) [10] | Median SILAC Ratio (Heavy/Light) [11] | Median SILAC Ratio (Heavy/Light) [12] | Median SILAC Ratio (Heavy/Light) [13] | Median SILAC Ratio (Heavy/Light) [14] | Median SILAC Ratio (Heavy/Light) [15] | Median SILAC Ratio (Heavy/Light) [16] | Median SILAC Ratio (Heavy/Light) [17] | Median SILAC Ratio (Heavy/Light) [18] | Median SILAC Ratio (Heavy/Light) [19] | also measured |
| --- | --- | --- | --- | --- | --- | --- | --- | --- | --- | --- | --- | --- | --- | --- | --- | --- | --- | --- | --- | --- | --- |
| CNC1CCN(C(=O)C[C@@H](Cc2ccccc2)C(=O)N[C@@H](CSC)C(=O)N[C@@H](CC2CCCCC2)[C@@H](O)C(=O)OC(C)C)CC1 [CP-108671, reference compound] | 1.304 | 1.214 | 0.3243 | 0.979 | 0.9337 | 1.4703 | 0.9991 | 1.082 | 1.415 | 1.079 | 1.5195 | 1.054 | 1.159 | 2.029 | 0.8158 | 0.8855 | 1.055 | 1.045 | 1.024 | 1.1454 | SILAC ratio (DMSO/CP-108671) ([7]; P08670 VIM Vimentin): 1.00; SILAC ratio (DMSO/CP-108671) ([8]; Q9ULV4 CORO1C Coronin-1C): 0.71; SILAC ratio (DMSO/CP-108671) ([10]; P36578 RPL4 60S ribosomal protein L4): 0.66; SILAC ratio (DMSO/CP-108671) ([17]; P27824 CANX Calnexin): 0.96; Median SILAC Ratio (Heavy/Light) [20]: 1.21; Median SILAC Ratio (Heavy/Light) ([21]; protein RPL23A 60S ribosomal protein L23a, P62750): 1.246 |
| Cc1cc([C@H]2C[C@H]3[C@@H](C)SC(N)=N[C@@]3(c3ccc(F)cc3F)CO2)on1 [PF-9283] | 1.475 and 1.261 | 1.332 and 2.325 | 1.734 and 1.507 and 1.332 | 1.087 | 1.107 | 1.367 and 1.145 | 1.234 | 1.08 | 1.398 and 0.857 | 1.319 | 1.523 and 1.925 | 1.326 | 1.391 | 2.994 | 0.8953 | 0.9748 | 1.191 and 0.7904 | 1.369 | 1.132 | 1.094 | Median SILAC Ratio (Heavy/Light) ([7]; replicate R3): 1.654; Median SILAC Ratio (Heavy/Light) ([7]; replicate R4): 1.795; Median SILAC Ratio (Heavy/Light) [20]: 1.33 and 2.134; Median SILAC Ratio (Heavy/Light) [21]: 1.1611 |
